Reference: PubChem BioAssay AID360 (National Center for Advancing Translational Sciences (NCATS), 2006)
Among all 48,000 compounds or so, about 550 (1.1%) were called active. Roughly 4% stayed inconclusive and do not appear here. Rule as the data show it: active = potency below about 15 µM; inconclusive = mostly about 16 µM to 33 µM; inactive = weaker than that. The list shows a part of the results.

Biological target: Lysosomal acid glucosylceramidase (Homo sapiens) (UniProt P04062)
Test: Glucocerebrosidase;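 also: the screen sought inhibitors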
Details: purified enzyme, resorufin glucoside fluorescence (screen aimed at inhibitors), 20 min
How it was run: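 Wild-type enzyme at 0.2 nM final in 50mM citric acid/KH2PO4, 10mM sodium taurocholate, 0.01% tween-20, pH 5.9, with resorufin beta-D-glucopyranoside at 30 uM final. Compounds titrated, 20 min at RT, red fluorescence read; AC50 from titration.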
Potency is read from the fitted curve at half-maximal effect.

UniProt P04062, sequence (P04062 whole entry, looked up): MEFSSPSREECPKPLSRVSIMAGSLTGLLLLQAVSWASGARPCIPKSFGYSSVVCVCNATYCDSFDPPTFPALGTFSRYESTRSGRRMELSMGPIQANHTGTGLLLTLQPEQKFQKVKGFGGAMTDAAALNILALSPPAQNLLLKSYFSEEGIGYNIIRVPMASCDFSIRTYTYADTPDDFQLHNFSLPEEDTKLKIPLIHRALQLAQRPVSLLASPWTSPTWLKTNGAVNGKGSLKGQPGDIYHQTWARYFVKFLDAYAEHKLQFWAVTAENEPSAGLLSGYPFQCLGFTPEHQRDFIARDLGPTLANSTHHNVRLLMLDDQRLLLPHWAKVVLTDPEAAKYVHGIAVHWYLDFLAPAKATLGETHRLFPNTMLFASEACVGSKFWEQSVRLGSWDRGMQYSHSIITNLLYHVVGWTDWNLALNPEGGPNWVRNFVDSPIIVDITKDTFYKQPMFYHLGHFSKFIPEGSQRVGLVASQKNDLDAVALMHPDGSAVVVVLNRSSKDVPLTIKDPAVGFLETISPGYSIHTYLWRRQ

Potency, inactive:
Cc1cc(Br)ccc1NC(=O)CNC(=O)CSc1n[nH]c(N)n1 > 76.9 µM
O=C(Nc1ccc(Cl)cc1C(=O)Nc1ccncc1)c1ccco1 > 76.9 µM
COc1ccccc1NC(=O)c1nnn(Cc2ccccc2)c1NC(C)=O > 76.9 µM
Cc1oc(C)c(C(=O)Nc2ccc(CC(=O)O)cc2)c1C(=O)Nc1ccc(CC(=O)O)cc1 > 76.9 µM
O=C(CCN1CCN(c2ccc(F)cc2)CC1)Nc1ccc(F)cc1 > 76.9 µM
CC1CCCCN1C(=O)Cn1c(=O)n(CCC(=O)NCc2ccco2)c(=O)c2sccc21 (configuration not stated) > 76.9 µM
Cc1ccc(NC(=O)CS(=O)CC(=O)N(CC(=O)NC2CCCC2)c2cccc(C)c2C)cc1 (configuration not stated) > 76.9 µM
O=C(O)c1cccc(CN2C(=O)SC(Nc3ccccc3)C2=O)c1 (configuration not stated) > 76.9 µM
COC(=O)C1CCN(C(=O)c2c(-c3ccccc3Cl)noc2C)CC1 > 76.9 µM
O=C1CCCc2c1cc(C(=O)Nc1ccc(Br)cn1)c(=O)n2-c1ccccc1 > 76.9 µM
COc1ccc(NC2SC(=O)N(CC(=O)O)C2=O)cc1 (configuration not stated) > 76.9 µM
COc1ccccc1NC(=O)Cn1cnc2c(cnn2-c2ccccc2)c1=O > 76.9 µM
Cc1cc(S(=O)(=O)N2CCCC2)c(C)s1 > 76.9 µM
Cc1ccc(CCNC(=O)CCNS(=O)(=O)c2ccc3c(c2)c(=O)n(C)c(=O)n3C)cc1 > 76.9 µM
COc1ccc(S(=O)(=O)N(C)CC(=O)Nc2ccccc2C(F)(F)F)cc1 > 76.9 µM
Cc1ccc(N2CC(C(=O)Oc3cccc(N4C(=O)CCC4=O)c3)CC2=O)cc1 (configuration not stated) > 76.9 µM
Cc1cccc(NC(=O)C2CCN(c3nc(C)cc(C)n3)CC2)c1 > 76.9 µM
Nc1nc2ccc(C(=O)Nc3ccccc3)cc2s1
CCCCn1c(SCC(=O)N2CC(=O)Nc3ccccc32)nnc1-c1ccoc1C > 76.9 µM
COc1ccccc1OCCn1c(C(C)O)nc2ccccc21 (configuration not stated) > 76.9 µM
O=C(Cc1c(O)c2ccccc2[nH]c1=O)NC1CCCCCC1 > 76.9 µM
CC(C)OC(=O)CCCN1C(=O)c2ccc(N)cc2C1=O > 76.9 µM
CC(C)C(c1nnnn1C1CCCC1)N1CCN(c2ccccc2F)CC1 (configuration not stated)
COc1cccc(NC(=O)N2CCCC(C(=O)Nc3ccccc3OC)C2)c1 (configuration not stated) > 76.9 µM
O=C(CSc1nc2ccsc2c(=O)n1Cc1ccccc1)NCc1ccco1 > 76.9 µM
CCOC(=O)N1CCC(Nc2c(NCCCN3CCN(c4ccc(OC)cc4)CC3)c(=O)c2=O)CC1 > 76.9 µM
CCNC(=O)C1CC(=O)N(Cc2ccc3c(c2)OCO3)C(=Nc2ccc(F)cc2)S1 (configuration not stated) > 76.9 µM
[N-]=[N+]=CC(=O)CC(c1ccccc1)N1C(=O)c2ccccc2C1=O (configuration not stated) > 76.9 µM
Cc1ccc(S(=O)(=O)NCCCNC(=O)N2CCOCC2)cc1 > 76.9 µM
Cc1cc(NC(=O)CC(C)(C)C)nc2c1c(=O)oc1ccccc12 > 76.9 µM
O=C(CSc1nnc2scc(-c3ccc(Cl)cc3)n12)NCc1ccc2c(c1)OCO2 > 76.9 µM
O=C(CCC1CCCC1)Nc1ccon1 > 76.9 µM
COc1ccc(NC(=O)CSc2nc(-c3ccncc3)nn2CC(=O)N2CCCC2)cc1 > 76.9 µM
CC(C)(C)S(=O)(=O)c1ccc2nc3c(n2c1)CCCC3 > 76.9 µM
CCCCn1c(SCC(=O)c2ccc3c(c2)OCCO3)nnc1-c1ccoc1C > 76.9 µM
O=C(c1ccco1)N1CCN(c2cc(=O)n(C3CCCCC3)c(=O)[nH]2)CC1 > 76.9 µM
CC1=Nn2c(nnc2-c2ccco2)SC1 > 76.9 µM
O=C(Nc1ccc(Cl)cc1C(=O)N1CCOCC1)c1ccco1 > 76.9 µM
CCCN(CCC)CCCNC(=O)c1cn(CCOC)c(=O)c2c1c1ccccc1n2C > 76.9 µM
CC(C)CCNC(=O)NC(=O)CSc1nnc(-c2ccccc2Br)o1 > 76.9 µM
O=C(CSc1ncc(-c2ccccc2)n1CC1CCCO1)N1CCCCC1 (configuration not stated) > 76.9 µM
Cc1sc2ncnc(N3CCN(c4ncccn4)CC3)c2c1C > 76.9 µM
Cc1c(N=CN2CCOCC2)c(=O)n(C)c(=O)n1C > 76.9 µM
CCOc1cc(NC(=O)C2CCCCC2)c(OCC)cc1NC(=O)c1ccco1 > 76.9 µM
COc1ccc(S(=O)(=O)N2CCCC(C(=O)N3CCOCC3)C2)cc1C (configuration not stated) > 76.9 µM
CN=C1SC(CC(=O)Nc2sc(C)c(C)c2C(=O)OC)C(=O)N1C (configuration not stated) > 76.9 µM
Cc1ccc(Nc2nc(N)nc(CN3CCCCCC3)n2)cc1
Cn1c(CCNC(=O)c2ccco2)nc2cc(NS(=O)(=O)c3ccccc3)ccc21 > 76.9 µM
O=C(c1ccccc1)N1CCN(C(=O)C23CC4CC(CC(C4)C2)C3)CC1 > 76.9 µM
Cc1ccc2nc(/C(C#N)=N/O)[nH]c2c1 > 76.9 µM
COC(=O)C(C)Sc1nc2c(c(=O)n(C)c(=O)n2C)n1Cc1cccc(C)c1 (configuration not stated) > 76.9 µM
CCCC(=O)Nc1nnc(-c2ccco2)s1 > 76.9 µM
CC1CN=C(NC2CCCCC2C)S1 (configuration not stated) > 76.9 µM
COc1ccc(-c2cn3cccnc3n2)cc1NC(=O)C1CCCC1
CCc1nn(CC(=O)O)c(=O)c2ccccc12 > 76.9 µM
COc1ccc(OC)c(S(=O)(=O)N2CCN(C)CC2)c1 > 76.9 µM
O=c1[nH]c(-c2ccc(Cl)cc2)nc2c1cnn2-c1ccccc1 > 76.9 µM
CCc1ccccc1NC(=O)COC(=O)C1CC(=O)N(c2ccc(F)cc2)C1 (configuration not stated) > 76.9 µM
COc1ccc(C2/C(=C(/O)c3ccc4c(c3)CC(C)O4)C(=O)C(=O)N2CCN2CCOCC2)cc1 (configuration not stated) > 76.9 µM
Cc1cccnc1NC(=O)c1ccc2nc(N)sc2c1 > 76.9 µM
CSCCC(NC(=O)c1ccco1)C(=O)O (configuration not stated) > 76.9 µM
CC(=O)NCCn1c(SCC(=O)NCc2ccco2)nc2ccccc2c1=O > 76.9 µM
COc1cccc(-c2cc(C(F)(F)F)nc(N3CCC(C)CC3)n2)c1 > 76.9 µM
Cc1ccc(NC(=O)NC2CCN(CC(=O)Nc3nccs3)CC2)cc1 > 76.9 µM
CCC(C)(C)NC(=O)C(c1cccnc1)N(CCOC)C(=O)Cn1nnc2ccccc21 (configuration not stated) > 76.9 µM
O=C(NC1=NCCS1)C1CC(=O)N(c2ccccc2)C1 (configuration not stated) > 76.9 µM
O=C(c1ccco1)N1CCN(C(c2ccccc2F)c2nnnn2Cc2cccs2)CC1 (configuration not stated) > 76.9 µM
Cc1c(Cc2ccccc2)c(=O)oc2cc(OCc3nn[nH]n3)ccc12 > 76.9 µM
COc1ccccc1-c1noc(-c2cccnc2)n1 > 76.9 µM
Cc1csc(NC(=O)CNS(=O)(=O)c2cccs2)n1 > 76.9 µM
CCOC(=O)C(C)C1(O)c2ccccc2-c2ncccc21 (configuration not stated) > 76.9 µM
C=CCNCc1cccn1-c1ccccc1 > 76.9 µM
COC(=O)[C@H](CCSC)NC(=O)N1CCN(Cc2ccccc2)CC1 > 76.9 µM
CCC(=O)Nc1cc(C)c(NC(=O)c2ccccc2OC)cn1 > 76.9 µM
CCCC(C(=O)NCc1ccco1)N(C(=O)CNS(=O)(=O)c1ccccc1)C1CCCC1 (configuration not stated) > 76.9 µM
COc1ccc(NC(=O)c2ccco2)c(NC(=O)Cc2cccs2)c1 > 76.9 µM
CC12CCC(C(=O)O)(c3nc(C#N)c(C#N)nc31)C2(C)C (configuration not stated) > 76.9 µM
NS(=O)(=O)c1ccc(NC(=O)CN2CCCCC2)cc1 > 76.9 µM
CCn1c(=O)c2c(nc3n2CCCN3CCc2ccccc2)n(C)c1=O > 76.9 µM
Cc1cc(N2CC(C(=O)O)CC2=O)ccc1Br (configuration not stated) > 76.9 µM
CCCC1(CCC)NC(=O)NC1=O > 76.9 µM
O=C(NCC(c1cccnc1)N1CCN(c2ccccc2F)CC1)OCc1ccccc1 (configuration not stated) > 76.9 µM
c1ccc(Cn2nnnc2C(c2ccccn2)N2CCOCC2)cc1 (configuration not stated) > 76.9 µM
CCOC(=O)Cn1c(=O)c2c(nc3n2CCS3)n(C)c1=O > 76.9 µM
C=C(C)CSc1nc2ncccc2[nH]1 > 76.9 µM
COc1cccc(-c2nnc(SCC(=O)OC(C)C)n2Cc2ccco2)c1 > 76.9 µM
Clc1ccccc1CSc1nnc(-c2cccnc2)n1Cc1ccco1 > 76.9 µM
COc1ccc2sc(NC(C)=O)nc2c1 > 76.9 µM
COc1ccccc1-c1ccc(Nc2cccc(C(C)=O)c2)nn1 > 76.9 µM
O=C(CCCc1nc(-c2ccccc2)no1)NCc1cccnc1 > 76.9 µM
COc1ccc(N2C(=O)CSC23CCCCC3)cc1 > 76.9 µM
CCS(=O)(=O)N1CCC(C(=O)NCCc2ccccc2)CC1 > 76.9 µM
